Measured values published in the supplement of paper PMC4604168 (melanoma cell lines).
The other results are listed elsewhere or left out. Many values rest on one well or one pass, so single values are uncertain.

tested on: IPC-298; assay: cell count relative to DMSO control; melanoma cells; higher = more viable cells; conditions: library dose: low library concentration; 72 h
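Further: cell number obtained by counting DAPI-stained nuclei in high-throughput microscope images with image analysis software, screen run in 1,536-well plates.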

| Structure (SMILES) | cell count |
| --- | --- |
| Nc1ccn([C@@H]2O[C@H](CO)[C@@H](O)C2(F)F)c(=O)n1 [gemcitabine] + O=c1cc(-c2cccc3c2Sc2ccccc2S3)oc(N2CCOCC2)c1 [KU55933] (first compound 0.0004 µM, partner dose 1 µM) | 92.3% |
| Nc1nc(F)nc2c1ncn2[C@@H]1O[C@H](CO)[C@@H](O)[C@@H]1O [fludarabine] + Oc1cc(-c2nc(-c3ccccc3)[nH]c2-c2ccncc2)ccc1Cl [L779450] (first compound 0.2 µM, partner dose 0.2 µM) | 72.8% |
| Nc1ccn([C@@H]2O[C@H](CO)[C@@H](O)C2(F)F)c(=O)n1 [gemcitabine] + CCN(CC)CCCCNc1ncc2cc(-c3cc(OC)cc(OC)c3)c(NC(=O)NC(C)(C)C)nc2n1 [PD173074] (first compound 0.0004 µM, partner dose 0.1 µM) | 90.6% |
| CC(=O)O[C@@]12CO[C@@H]1C[C@H](O)[C@@]1(C)C(=O)[C@H](O)C3=C(C)[C@@H](OC(=O)[C@H](O)[C@@H](NC(=O)OC(C)(C)C)c4ccccc4)C[C@@](O)([C@@H](OC(=O)c4ccccc4)[C@H]21)C3(C)C [Docetaxel] + CCCCCCCCCCCC1=C(O)C(=O)C=C(O)C1=O [Embelin] (first compound 0.0001 µM, partner dose 1.2 µM) | 58.3% |
| Nc1nc(F)nc2c1ncn2[C@@H]1O[C@H](CO)[C@@H](O)[C@@H]1O [fludarabine] + O=c1cc(-c2cccc3c2Sc2ccccc2S3)oc(N2CCOCC2)c1 [KU55933] (first compound 0.2 µM, partner dose 1 µM) | 90.9% |
| CO[C@H]1C[C@@H]2CC[C@@H](C)[C@@](O)(O2)C(=O)C(=O)N2CCCC[C@H]2C(=O)O[C@H]([C@H](C)C[C@@H]2CC[C@@H](OCCO)[C@H](OC)C2)CC(=O)[C@H](C)/C=C(\C)[C@@H](O)[C@@H](OC)C(=O)[C@H](C)C[C@H](C)/C=C/C=C/C=C/1C [everolimus] + O=c1cc(-c2cccc3c2Sc2ccccc2S3)oc(N2CCOCC2)c1 [KU55933] (first compound 0.02 µM, partner dose 1 µM) | 79.4% |
| CC(=O)O[C@@]12CO[C@@H]1C[C@H](O)[C@@]1(C)C(=O)[C@H](O)C3=C(C)[C@@H](OC(=O)[C@H](O)[C@@H](NC(=O)OC(C)(C)C)c4ccccc4)C[C@@](O)([C@@H](OC(=O)c4ccccc4)[C@H]21)C3(C)C [Docetaxel] + COc1ccc2c(c1)CCC1C2CCC2(C)C(NCCCCCCN3C(=O)C=CC3=O)CCC12 [U73122] (first compound 0.0001 µM, partner dose 0.4 µM) | 61.5% |
| CC(=O)O[C@@]12CO[C@@H]1C[C@H](O)[C@@]1(C)C(=O)[C@H](O)C3=C(C)[C@@H](OC(=O)[C@H](O)[C@@H](NC(=O)OC(C)(C)C)c4ccccc4)C[C@@](O)([C@@H](OC(=O)c4ccccc4)[C@H]21)C3(C)C [Docetaxel] + O=C(O)C(=O)Nc1sc2c(c1C(=O)O)CCNC2 [TCS401] (first compound 0.0001 µM, partner dose 1.66667 µM) | 62.9% |
| CO[C@H]1C[C@@H]2CC[C@@H](C)[C@@](O)(O2)C(=O)C(=O)N2CCCC[C@H]2C(=O)O[C@H]([C@H](C)C[C@@H]2CC[C@@H](OCCO)[C@H](OC)C2)CC(=O)[C@H](C)/C=C(\C)[C@@H](O)[C@@H](OC)C(=O)[C@H](C)C[C@H](C)/C=C/C=C/C=C/1C [everolimus] + c1cc(-c2cnn3cc(-c4ccc(OCCN5CCCCC5)cc4)cnc23)ccn1 [Dorsomorphin] (first compound 0.02 µM, partner dose 0.4 µM) | 81.4% |
| CC(=O)c1c(C)c2cnc(Nc3ccc(N4CCNCC4)cn3)nc2n(C2CCCC2)c1=O [palbociclib] + Oc1cc(-c2nc(-c3ccccc3)[nH]c2-c2ccncc2)ccc1Cl [L779450] (first compound 0.04 µM, partner dose 0.2 µM) | 74.2% |
| Nc1ncn([C@H]2C[C@H](O)[C@@H](CO)O2)c(=O)n1 [decitabine] + O=C(Nc1ccccc1)c1cc([N+](=O)[O-])ccc1Cl [GW9662] (first compound 0.1 µM, partner dose 2 µM) | 76.3% |
